Experimental data as given in PubChem BioAssay AID894 (National Center for Advancing Translational Sciences (NCATS), 2007).
The campaign covered roughly 150,000 compounds. About 6,500 (4.3%) were called active. Inconclusive results, whose numbers are uncertain, are shown with a selection of clear calls. Calls come from the whole dose curve; as a rule, active = well fitted inhibition curve with a large enough effect (not every such curve was filed as active); inconclusive = small, poorly fitted or top-dose-only effect, or another doubt; inactive = no such curve, though single readings can be large or run the other way. Potencies beside an inconclusive call are fits to weak or partial responses and may not hold up.

molecular target: 15-hydroxyprostaglandin dehydrogenase [NAD(+)] (Homo sapiens) (UniProt P15428); assay: qHTS Assay for Inhibitors of HPGD (15-Hydroxyprostaglandin Dehydrogenase); details: purified HPGD, NADH fluorescence kinetic, PGE2 substrate; activity change, negative = inhibition: stronger effect = lower value
Summary of the method: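 20 nM HPGD preincubated 15 min at room temperature with compound in 50 mM Tris-HCl pH 8, 0.01% Tween 20. Started with 1 mM NAD+ and 30 uM prostaglandin E2; NADH fluorescence (360/450 nm) read 5 times over 30-s intervals, last minus first.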
% is set by controls: 0 for no effect and ±100 for the full control effect; potency is the fitted concentration of half-maximal effect; tags give direction and shape of the fitted curve.

Chain of UniProt P15428 (P15428 whole entry, looked up): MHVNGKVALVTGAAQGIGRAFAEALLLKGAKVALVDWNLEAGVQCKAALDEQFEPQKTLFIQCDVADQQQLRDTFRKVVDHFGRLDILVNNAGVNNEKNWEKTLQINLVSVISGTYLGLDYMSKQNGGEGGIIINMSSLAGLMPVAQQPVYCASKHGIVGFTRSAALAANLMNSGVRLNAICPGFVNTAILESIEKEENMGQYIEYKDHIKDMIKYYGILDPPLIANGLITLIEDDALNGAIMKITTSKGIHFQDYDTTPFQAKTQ

Potency, inconclusive:
CCC1CCCCN1c1cc(C)nc2cc(-c3cccc(C)c3)nn12 (stereo not drawn) 31.6 µM [inhibitor, single point]
CCNc1ncc2nc(CCc3ccccc3)c(=O)n(CCOC)c2n1 7.08 µM [inhibitor, partial curve]
Cc1cc(=O)n2[nH]c(=O)c(N=Nc3ccccc3)c2[nH]1 25.1 µM [inhibitor, partial curve, poor fit]
CCOC(=O)c1cnc2cc(C)ccn2c1=O 35.5 µM [inhibitor, partial curve]
COC(=O)c1ccccc1NC(=O)Cn1c(SC)c(F)cnc1=O 22.4 µM [inhibitor, partial curve]
COc1cccc(-c2nn(C)c3sc(C(=O)N4CCN(c5ccccc5)CC4)cc23)c1 25.1 µM [inhibitor, partial curve, poor fit]
COc1ccc(/C=N/NC(=O)c2[nH]c3ccc(Br)cc3c2-c2ccccc2)cc1 28.2 µM [inhibitor, single point]
O=C(CSC1=N/C(=C/c2ccc(Cl)c(Cl)c2)C(=O)N1c1ccccc1F)NC1CC1 2 µM [inhibitor, partial curve]
CCC1(C)Cc2c(sc3nc(NC)n(C)c(=O)c23)CO1 (stereo not drawn) 28.2 µM [inhibitor, partial curve]
Cc1ccc2[nH]c(=O)c3cc(C(=O)NCCN4CCN(C)CC4)sc3c2c1 28.2 µM [inhibitor, partial curve]
COc1cc2cc(CN(CCN3CCCC3)C(=O)Nc3ccc(F)cc3)c(=O)[nH]c2cc1OC 31.6 µM [inhibitor, single point]
Cc1ccc2c(COC(=O)c3n[nH]c4ccccc34)cc(=O)oc2c1 2.51 µM [inhibitor, partial curve]
Cc1nn(CCc2nn[nH]n2)c2nc(C(F)(F)F)cc(C(F)(F)F)c12 28.2 µM [inhibitor, partial curve]

Potency, active:
Cc1ccsc1/C=N/n1c(-c2ccccc2)n[nH]c1=S 12.6 µM
O=C(/C=C/c1ccccc1)c1ccc(O)cc1O 15.8 µM

Activity change, negative = inhibition, inactive:
COc1cc(/C=N/NS(=O)(=O)c2ccccc2)ccc1OS(=O)(=O)c1ccc(C)cc1 -18.9%
COc1ccc(-c2nn(-c3ccccc3)cc2/C=C(/C#N)C(N)=O)cc1[N+](=O)[O-] -25.1%
CC(=O)c1cnc2nc(C)nn2c1C -8.31%
